{"source": "PubChem BioAssay AID741", "about": "(SRMLSC, 2007)", "note": "Inconclusive results, whose numbers are uncertain, are shown with a selection of clear calls. Calls of active or inactive are those of the source. No stated cut-off is given here; in the data, active means toxicity enhancement factor above about 0.054; inconclusive means between about 0.00067 and that limit; inactive means weaker than that.", "data": [{"assay": "MRP-overexpressing cell chemosensitization – dose response (AID 741)", "conditions": "MRP-overexpressing cells, viability with/without cytotoxic drug; active compounds read high", "values": [{"smiles": "CNc1nc2c(c(=O)n(C)c(=O)n2C)n1Cc1ccccc1", "toxicity enhancement factor": "inconclusive: 0.0154"}, {"smiles": "COc1ccc(CC(=O)N2CCN(c3ccccn3)CC2)cc1OC", "toxicity enhancement factor": "inconclusive: 0.009"}, {"smiles": "Cc1ccc(S(=O)(=O)Cc2ccc(C(=O)N3CCN(Cc4ccccc4)CC3)o2)cc1", "toxicity enhancement factor": "inconclusive: 0.0049"}, {"smiles": "Cn1nnnc1SCC(=O)Nc1ccccc1N1CCOCC1", "toxicity enhancement factor": "inconclusive: 0.0018"}, {"smiles": "CCOC(=O)C1CCCN(c2c(Nc3ccc(C)c(C)c3)c(=O)c2=O)C1", "note": "(stereo unspecified)", "toxicity enhancement factor": "inconclusive: 0.0096"}, {"smiles": "C=CCN1C(=O)/C(=C2/Sc3ccccc3N2C)SC1=Nc1c(C)n[nH]c1C", "toxicity enhancement factor": "active: 0.241"}, {"smiles": "O=C1N2CN(C(c3ccccc3)c3ccccc3)CN=C2SC1(CO)CO", "toxicity enhancement factor": "inconclusive: 0.0045"}, {"smiles": "CC(C)OCCCn1c(=NC(=O)c2ccncc2)c(C#N)cc2c(=O)n3ccccc3nc21", "toxicity enhancement factor": "inconclusive: 0.0321"}, {"smiles": "Cc1nc(N2CCN(S(=O)(=O)c3cccc4nonc34)CC2)c2c3c(sc2n1)CCCC3", "toxicity enhancement factor": "inconclusive: 0.0232"}, {"smiles": "CCCC1O[C@@H]2CC3C4CCC5=CC(=O)C=C[C@]5(C)C4C(OC(C)=O)C[C@]3(C)[C@]2(C(=O)COC(C)=O)O1", "note": "(stereo partly specified)", "toxicity enhancement factor": "inconclusive: 0.0258"}, {"smiles": "O=c1c2c3c(sc2n2cnnc2n1Cc1ccccc1)CN(Cc1ccccc1)CC3", "toxicity enhancement factor": "inconclusive: 0.0342"}, {"smiles": "CCCNc1nc2c(c(=O)n(C)c(=O)n2C)n1Cc1ccc(F)cc1", "toxicity enhancement factor": "inactive: -0.0012"}, {"smiles": "CCOC(=O)C1C2C=CC3(CN(CCc4ccccc4)C(=O)C13)O2", "note": "(stereo unspecified)", "toxicity enhancement factor": "inconclusive: 0.0039"}, {"smiles": "CCOC(=O)Cn1cnc2sc3c(c2c1=O)CCC3", "toxicity enhancement factor": "inconclusive: 0.0183"}, {"smiles": "COc1ccc(C(=O)Nc2nc3ccccc3[nH]2)cc1OC", "toxicity enhancement factor": "inactive: -0.0002"}, {"smiles": "CCC(C)Nc1nc2c(c(=O)n(C)c(=O)n2C)n1Cc1cccc(C)c1", "note": "(stereo unspecified)", "toxicity enhancement factor": "inconclusive: 0.0086"}, {"smiles": "Cc1ccc(C)c(N2CCN(C(=O)c3cc4ccccn4n3)CC2)c1", "toxicity enhancement factor": "inconclusive: 0.0119"}, {"smiles": "C=CCn1c(SCC(=O)NCc2ccco2)nnc1-c1ccc2ccccc2n1", "toxicity enhancement factor": "inconclusive: 0.0006"}, {"smiles": "c1ccc(CN2CCN(CCCNc3ccc4nnc(-c5ccccc5)n4n3)CC2)cc1", "toxicity enhancement factor": "inconclusive: 0.0405"}, {"smiles": "CN1CCc2c(sc3c2c(=O)n(-c2ccccc2)c2nnc(SCc4ccc(Cl)cc4)n32)C1", "toxicity enhancement factor": "inconclusive: 0.0311"}, {"smiles": "CCOC(=O)C1(c2ccccc2)NC(c2ccccc2C)C2C(=O)N(c3ccc4c(c3)OCO4)C(=O)C21", "note": "(stereo unspecified)", "toxicity enhancement factor": "inconclusive: 0.0482"}, {"smiles": "Cc1cccc2cc(CN(Cc3nnnn3C3CCCCC3)C3CCCC3)c3nnnn3c12", "toxicity enhancement factor": "active: 0.117"}, {"smiles": "COC(=O)c1ccccc1NC(=O)c1cccs1", "toxicity enhancement factor": "inactive: -0.0023"}, {"smiles": "Cc1ccc(C(=O)CSc2nnc(COc3cccc4cccnc34)o2)cc1", "toxicity enhancement factor": "inconclusive: 0.001"}, {"smiles": "C=CCn1c(=O)c2ccccc2n2c(SCc3nnc(-c4ccccc4Br)o3)nnc12", "toxicity enhancement factor": "inconclusive: 0.0167"}, {"smiles": "CCOC(=O)c1cc2c(=O)n3ccccc3nc2n(CC2CCCO2)c1=NC(C)=O", "note": "(stereo unspecified)", "toxicity enhancement factor": "inconclusive: 0.0039"}, {"smiles": "O=C(NCc1ccccc1)c1cc(-n2cnnc2)ccc1Cl", "toxicity enhancement factor": "inconclusive: 0.0009"}, {"smiles": "CN1CCN(c2nc(-c3ccncc3)nc3ccccc23)CC1", "toxicity enhancement factor": "inconclusive: 0.0142"}, {"smiles": "COc1cc(C)nc(-n2nc(C)cc2OC)n1", "toxicity enhancement factor": "inconclusive: 0.003"}, {"smiles": "COc1ccc(Cl)cc1C(=O)Nc1ccccc1N1CCN(C(=O)C(C)C)CC1", "toxicity enhancement factor": "inactive: -0.0048"}, {"smiles": "COc1cc(OC)cc(C(=O)Nc2nc3ccccc3[nH]2)c1", "toxicity enhancement factor": "inconclusive: 0.0087"}, {"smiles": "Cc1ccc(N2CCN(c3ccc(C)cc3)C2c2ccncc2)cc1", "toxicity enhancement factor": "inconclusive: 0.0241"}, {"smiles": "COc1ccccc1Nc1nc(N)nc(CN2CCOCC2)n1", "toxicity enhancement factor": "inactive: -0.0058"}, {"smiles": "Cn1c(=O)c2c(nc(CN3CCN(c4ccccc4)CC3)n2Cc2c(F)cccc2Cl)n(C)c1=O", "toxicity enhancement factor": "inconclusive: 0.0174"}, {"smiles": "CCCCCC(O)c1cccc(OCc2ccc3ccccc3n2)c1", "note": "(stereo unspecified)", "toxicity enhancement factor": "inactive: -0.0001"}, {"smiles": "Cc1ccc(OS(=O)(=O)c2ccccc2)c(/C=N/N=C2\\NC(=O)C(C)S2)c1", "note": "(stereo unspecified)", "toxicity enhancement factor": "inconclusive: 0.0005"}]}]}
